Data reported in the RNAGym collection of RNA variant scans (doi:10.1073/pnas.2313332121).
Variants at the floor of the assay are shown more often than the library holds them.

B1: TPR 5TU (parent)
chain: GGAUCUUCUCGAUCUAACAAAAAAGACAAAUCUGCCACAAAGCUUGAGAGCAUCUUCGGAUGCAGAGGCGGCAGCCUUCGGUGGCGCGAUAGCGCCAACGUUCUCAACUAUGACACGCAAAACGCGUGCUCCGUUGAAUGGAGUUUAUCAUG

Variants of: B1
Test: polymerase ribozyme fitness, log enrichment relative to wild type (log ratio); higher = more active; in vitro selection for triplet polymerase activity
How it was run: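 Mutant libraries for each subunit of a heterodimeric triplet polymerase ribozyme were made by PCR and then transcribed. Each library underwent one round of in vitro selection in triplicate: annealing with a biotinylated primer, the partner subunit and triplets, frozen incubation at −7 °C, gel excision of extended constructs, streptavidin-bead capture and RT-PCR. Input and output libraries were Illumina-sequenced, and only genotypes with ≥10 input reads and ≥1 read per output were kept. Fitness is the logarithm, base 2, of genotype enrichment over wild-type enrichment, computed from inverse-variance-weighted replicate averages.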

Variant | polymerase ribozyme fitness (log ratio)
GGAUCUUCUGGAUCUAACAAAAAAGACAAAUCUGCCACAAAGCUUGAGAGCAUCUUCGGGUGCAGAGGCGGCGGCCUUCGGUGGCGCGAUAGCGCCAACGUUCUCAACUAUGACACGCAAAACGCGUGCUCCGUUGAAUGGAGUUUCUCAUG | ≤ -4.2
GGAUCUUCUGGAUCUAACAAAAAAGACAAAUCUGCCACAAAGCUUGAGAGCAUCUUCGGCUGCAGAGGCGUCAGCCUUCGGUGGAGAGAUAGCGCCAACGUUCUCAACUAUGACACGCAAAACGCAUGCUCCGUUGAAUGGAGUUUAUCAUA | ≤ -4.2
GGAUCUUCUGGAUUUAACAAAAAGGACAAAUCUGCCACAAAGCUUGAGCGCAACUUCGGAUGCAGAAGCGGCAGCCUUCGGUGGCGCGAUAGCGCCAACGUUGUCAACUAUGACACGCAAAACGCGUGCUCCGUUGAAUGAAGUUUAUGAUG | ≤ -4.2
GGAUCUUCUGGAUGUAACAAAAAAGACAAAUCUGCCACAAAACUUGCGAGCAUCUUCGGAUGCAGAGGCGGCAGCCUUCGGUGGCGUGAUAGGGCCAACGUUCUCGACUAUGACACGCAAAACGCGUGCUCCGUUGAAUGGAGUUUAUCAUG | ≤ -4.2
GGAUCUUCUGGAUGUAACAAAAAAGACAAAUCUGCCACAAAGCUUGAGAGCAUCUUCGGAUGCAGAGGCGGCAGCCUUCGGUGGCGCGAUAGCACCAACGUUCUCAACUAUGACACGCAAAACGCGUGCUCCGUUGAACGGAGUUUAUCAUG | ≤ -4.2
GGAUCUUCUGGAUCUAACAAAAAAGAAAAAUCUGCGACAAAGCUUGAAAGAAUCUUCGGAUGCAGAGGCGGCAGCCUUCGGUGGCGCGAUAGGGCCAACCUUCUCAACUAUGACACGCAAAACGCGUGCUCCGUUGAAUCGAGUUUAUCAUG | ≤ -4.2
GGAUCUUCUGGAUCUAACAAAAAAGACAAAUCUGCCACAAAGCUUGAGAGCAUCUUCGGAUGCAGAGGCGGCAGCCUUCGGUGGCGCGGUAGCGCCAACGUUUUCAACUAUGACACGCAAAACGCGUGCUCCGGUGAAUGAAGUUUAUCAAG | ≤ -4.2
GGAUCUUCUGGAUCUAACAAAAAAGACAAAUCUGCUACAAAGCUUGAGAGCAUCAUCGGAUGCAGAGGCGGCAGCCUUCGGUGGCGCGAUAGCGUAAACGUUCUCAACUAUGACACGCAAACCGCGUGCUCCGUUGAAUGGAGUUUAUCAUG | ≤ -4.2
GGAUCUUCUGGAUCUAACAAAAAAGACAAAUCUGGCACAAAGCUUGAGAGCAUCUUCGGAUGCAGAGGCGGCAGCCUUCGGUGGCGCGAUAGCCCCAACGUUCUCAACUAUGACACGCAAAACGCGUGCUCCGUUGAAUGGAGUUUAUCAUG | ≤ -4.2
GGAUCUUCUGGAUCUAACAAAAAAGACAAAUCUGCCACAAAGUUUGAGAGCAUCUUCGGAUGCAGAGGCGGCAGCCUUCGGUGGCGUGAUAGCGCCAACGUUCUCAACUAUGACACGCAAAACGCGUGCUCCGUUGAAUGGAGUUUAUCAUG | ≤ -4.2
GGAUCUUCUGGAUCUAACAAAAAAGACAAAUCUGCCACAAAGAUUGAGAGCAUCUUCAGAUGCAGAAGCGGCAGCCUUCGGUGGCGCGAUUGCGCCAACGUUCUCAACUAUGACACGCAAGACGCGUGCUCCGUUGGAUGGAGUUGAUCAUG | ≤ -4.2
GGAUCUUCUGGAUCUAACAAAAAAGACAAAUAUGCCACAAAGCUUGAGAGCAUCUUCUUAUGCAGAGGCGGCAGCCUUCGGUGGCGCGAUAGCGCCAACGUUCUCAACUAUGACACGCAAAACGCGUGCCCCGUUGAAUGGAGUUUAUCAUG | ≤ -4.2
GGAUCUUCUGGAUCUAACAAAAAAGACAAAUCUGCCACAAAGCUUGAGAGCGUCUACGGAUGCAGAGGCGGCAGCCUUCGGUGGCGCGAUAGCGCUAACGUUCUCAACUAUGACACGCAAAACGCGUGCUCCGUUGAAUUGAGUUUAUCAUG | ≤ -4.2
GGAUCUUCUGGAUCUAAGAAAAAAGACAAAGCUCCCACAAAGCUUGAGAGCAUCUUCGGAUGCAGACGCGGCAGUCCUCGGUGGCGCGAUAGCGCUAACGUUCUCAACUAUGACACGCAAAACGCGUGCUCCGUUGAAUGGAGUUUAUCAGG | ≤ -4.2
GGAUCUUCUGGAUGUAACAAAGAAGACAAAUCUGCCAAAAAGCUUGAGAGCAUCUUCGGAUGCAGAGGCGGCAGCCUUAGGUGGCGCGUUAGCUCCAACGUUCUCAACUAUGACACGCAAAAUGCGUGCUCCGUUGAAUGGCGUUUAUCAUA | ≤ -4.2
GGAUCUUCUGGAUCUAACAAAAAAGACAAAUCUGCCACAAAGCUUGAGAGCAUCUUCGGAUGCAGAGGCGGCGGCCUUCGGUGGGGCGAUAGCGCCAACGUUCUCAACUAUGACACGCAAAACACGUGCUCCGUUGAAUGGAGUUUAUCUUG | ≤ -4.2
GGAUCUUCUGGAUCUAACAAAAAAGACAAAUCUGCCACAAAGCUUGAGAGCAUCUUCGGAUGCAGAGGCGGCGGCCUUCGGUGGCGCGAUAUCGCCAACGUUCUCAACUAUGACACGCAAAACGCGUGCUCCGUUGAAUGGAGUUUAUCAUG | ≤ -4.2
GGAUCUUCUGGAUCUAACAAAAAAGACAAAUCUGCUACAAAGCUUGAGAGCGUCUUCGGAUGCAGAGGCGGCAGCCUUCGGUGGCGCGAUAGCCCCAACGUUCUCAUCUAUGACACGCAAAACGCGUGCUCCGUUGAAUGGAGUUUAUCAUG | ≤ -4.2
GGAUCUUCUGGAUCUAACAAAAAAGACAAAUCUGCCACAAAGCUUGAGAGCAUCUUAGGAUGCAGAGGCGGCAGCCUUCCGUGGCGCGAUAGCGUCAACGUUCUCAACUAUGACAUGCAAAACGCGUGCUCCGUUGAAUGGAGUUUAUCAUG | ≤ -4.2
